Laboratory results: the supplement of paper PMC12217912
This is one part of the list. The full chains were built here from the parent and the listed change. Inactive controls read about 0.05.

B1: TEV protease; numbered along this chain (parent)
chain: MGESLFKGPRDYNPISSSICHLTNESDGHTTSLYGIGFGPFIITNKHLFRRNNGTLVVQSLHGVFKVKDTTTLQQHLVDGRDMIIIRMPKDFPPFPQKLKFREPQREERICLVTTNFQTKSMSSMVSDTSCTFPSGDGIFWKHWIQTKDGQCGSPLVSTRDGFIVGIHSASNFTNTNNYFTSVPKNFMELLTNQEAQQWVSGWRLNADSVLWGGHKVFMVKPEEPFQPVKEATQL

Variants of: B1
Experiment: raw area under fraction-flipped curve 0-4 h after induction (AUC4h, not background-subtracted), DNA-recorder readout of cleavage of the substrate (dimensionless); higher = more cleavage of the substrate by the protease variant
Conditions: temperature: 34 °C; time window: 0-4 h after rhamnose induction
Procedure: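 In vivo DNA recorder in E. coli TOP10(DE3) ΔrhaA at 34 °C. Each TEVp single-site mutant (parent TEVp 0) is paired with a single-site variant of the 7-mer TEVs (canonical ENLYFQ|S). The substrate sits between flexible linkers in a Bxb1-sfGFP-TEVs-SsrA fusion, so cleavage stabilises Bxb1 and speeds flipping of a recombination array, read by NGS. The value is the raw area under the fraction-flipped curve over 0-4 h after rhamnose induction (AUC4h), with ≥20 reads per time point. It is not background-subtracted; inactive controls average about 0.047.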
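Also: Bxb1 expression induced with 0.2% (w/v) L-rhamnose at OD600 near 0.5, cultures sampled hourly, flipped fraction per protease–substrate barcode pair counted by paired-end Illumina sequencing.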

Variant | area with substrate EALYFQS | area with substrate ECLYFQS | area with substrate EFLYFQS | area with substrate EGLYFQS | area with substrate EILYFQS | area with substrate EKLYFQS | area with substrate ELLYFQS | area with substrate EMLYFQS | area with substrate EPLYFQS | area with substrate EQLYFQS | area with substrate ERLYFQS | area with substrate ESLYFQS | area with substrate ETLYFQS | area with substrate EVLYFQS | area with substrate EWLYFQS | area with substrate EDLYFQS | area with substrate EYLYFQS | area with substrate EHLYFQS | area with substrate EELYFQS
V67W | 0.114 | 0.0716 | 0.081 | 0.102 | 0.0919 | 0.0857 | 0.103 | 0.108 | 0.106 | 0.114 | 0.107 | 0.115 | 0.0634 | 0.0916 | 0.0895 |  |  |  | 
V67S | 0.0906 | 0.105 |  | 0.0938 | 0.075 | 0.0899 | 0.0788 | 0.0836 | 0.0877 | 0.0816 | 0.0817 | 0.103 |  | 0.0884 | 0.0792 | 0.115 | 0.0824 |  | 
H62I | 0.0917 |  |  |  | 0.0663 |  | 0.0767 |  |  |  |  | 0.0654 |  | 0.104 | 0.0816 |  | 0.0917 | 0.115 | 
H62Y | 0.128 | 0.0911 | 0.132 | 0.095 | 0.0895 | 0.144 | 0.109 | 0.15 | 0.118 |  | 0.106 | 0.116 | 0.12 | 0.093 |  |  |  | 0.116 | 0.11
F65N | 0.114 | 0.0774 |  |  | 0.0949 | 0.0885 | 0.0948 |  | 0.115 | 0.131 |  | 0.104 |  | 0.0853 |  | 0.13 |  |  | 
I43H | 0.0436 |  |  |  | 0.0445 | 0.0499 |  | 0.0481 | 0.0471 |  | 0.0515 | 0.0516 | 0.0595 |  |  | 0.0409 | 0.041 | 0.044 | 
I43D | 0.0364 | 0.0406 | 0.0461 | 0.0501 | 0.0388 | 0.0342 | 0.0318 | 0.0439 |  | 0.0412 | 0.0862 | 0.0462 | 0.0302 | 0.0495 | 0.0531 |  | 0.0501 | 0.0326 | 0.0449
V57N | 0.0976 |  | 0.0921 |  | 0.0864 | 0.12 | 0.102 |  | 0.127 |  |  | 0.111 | 0.0845 | 0.0947 | 0.0652 | 0.115 |  |  | 
V57S | 0.159 | 0.127 |  |  | 0.0871 | 0.106 |  | 0.0742 | 0.154 | 0.142 | 0.0806 | 0.0974 |  | 0.0998 | 0.0802 |  |  |  | 
F49Y | 0.0715 | 0.0618 | 0.076 |  | 0.0636 | 0.0861 | 0.0574 | 0.0779 | 0.0587 | 0.0684 | 0.0728 | 0.0703 |  | 0.0988 | 0.0706 |  | 0.0738 | 0.0718 | 0.079
F49Q | 0.0535 |  |  | 0.0465 | 0.0463 |  | 0.0619 | 0.0836 |  |  | 0.0496 | 0.0542 | 0.0586 | 0.0705 | 0.0402 |  |  |  | 
F49D | 0.0542 | 0.0589 | 0.0635 | 0.0622 | 0.0601 | 0.0484 |  |  |  |  | 0.0605 | 0.0549 | 0.0512 | 0.0348 | 0.0337 |  |  | 0.0595 | 0.056
G63R | 0.128 | 0.0696 |  |  | 0.0922 | 0.1 |  |  | 0.0669 | 0.117 | 0.0955 | 0.0794 |  | 0.0947 |  |  |  | 0.0797 | 0.0946
G63T | 0.102 | 0.0967 |  | 0.107 | 0.0965 | 0.0745 |  | 0.0806 |  | 0.123 | 0.0947 | 0.0917 | 0.094 |  | 0.0806 |  | 0.0914 | 0.087 | 0.0994
G63L | 0.0893 |  |  | 0.0895 | 0.0908 | 0.068 | 0.0794 | 0.0984 | 0.0888 | 0.0824 | 0.132 | 0.0804 | 0.104 | 0.0787 | 0.0828 |  | 0.0577 | 0.0534 | 0.109
Q59G | 0.142 | 0.0901 |  | 0.0504 | 0.0826 |  | 0.0849 |  |  |  |  | 0.0895 |  | 0.109 |  |  |  |  | 0.109
Q59K | 0.125 |  | 0.123 |  | 0.133 |  | 0.0893 |  |  |  | 0.0934 | 0.137 |  | 0.0828 |  | 0.125 | 0.144 | 0.128 | 
T44I | 0.0384 | 0.0383 | 0.0573 | 0.0582 | 0.0444 |  | 0.0542 | 0.0545 |  | 0.0731 | 0.0578 | 0.0555 | 0.0672 |  | 0.0593 |  |  |  | 0.0624
T44N | 0.0455 | 0.0398 |  |  | 0.0347 | 0.0275 | 0.0483 |  | 0.0549 | 0.0438 | 0.0546 | 0.0469 |  | 0.0444 | 0.0365 | 0.0425 | 0.0453 |  | 
G54A | 0.0734 |  |  | 0.0646 | 0.061 |  | 0.0752 | 0.0721 | 0.101 | 0.0634 | 0.0638 | 0.0671 |  | 0.084 | 0.0778 |  | 0.0602 | 0.0724 | 0.0772
G54K | 0.065 |  | 0.0643 | 0.0613 |  | 0.0527 | 0.058 |  |  |  | 0.0927 | 0.0768 | 0.0756 | 0.0589 |  |  | 0.0539 |  | 
G54W | 0.0599 | 0.0706 | 0.0755 |  | 0.0485 | 0.0662 | 0.0632 | 0.0679 |  |  |  | 0.0688 |  | 0.0648 |  |  | 0.0702 | 0.0625 | 0.0748
G54M | 0.0836 | 0.0689 | 0.0372 |  | 0.062 | 0.0742 | 0.0569 | 0.124 | 0.0713 | 0.0823 | 0.072 | 0.0622 | 0.0948 | 0.0747 | 0.0722 |  | 0.0573 |  | 0.102
G54C | 0.0791 | 0.0773 | 0.0728 | 0.0749 |  | 0.0799 | 0.0786 | 0.0772 | 0.0652 | 0.093 | 0.0768 | 0.0701 | 0.0718 | 0.062 |  |  | 0.0732 | 0.0931 | 0.0888
N45E | 0.0632 | 0.058 |  | 0.0592 | 0.0633 | 0.0638 | 0.084 |  |  | 0.0584 | 0.0587 | 0.0592 | 0.0537 | 0.061 | 0.0558 |  | 0.0535 | 0.0598 | 
N45P | 0.0469 |  |  |  |  | 0.0582 |  |  |  | 0.0769 |  | 0.0765 | 0.0888 | 0.0564 |  | 0.116 | 0.0907 |  | 0.0981
V58R | 0.0499 |  |  |  | 0.0418 | 0.0573 |  |  |  | 0.0558 |  | 0.0511 | 0.0611 | 0.0354 |  | 0.0492 |  |  | 0.0441
